Read-outs that look alike come from different tables or passages of the source. Bridge positions count the residues as written; N and C are the ends. Square brackets hold non-standard residues; d marks the D form. I, II: the chains in the order shown. ξ: configuration not given here. ξK = NCCCCC(N)C(=O)O; βAla = NCCC(=O)O A value given as a limit tells only on which side of the number the result lay.

In this experiment the test system is pseudotyped HIV-1 (NL4-3).
[1] abbreviates: Fig 4D, monomers versus N-/C-terminal dimers, pseudo HIV-1 (NL4-3), TZM-bl cells, tat-activated luciferase.
The mark [2] stands for this setting: Fig 2A, monomeric peptides, 100TCID50 pseudovirus pre-incubated with peptide 1 h at 37°C, added to TZM-bl cells, luciferase 72 h post-infection, three independent experiments, replicates of two.

Regarding `CC[C@H](C)[C@H](NC(=O)[C@H](Cc1ccc(O)cc1)NC(=O)[C@H](Cc1c[nH]c2ccccc12)NC(=O)[C@H](CC(C)C)NC(=O)[C@H](Cc1c[nH]c2ccccc12)NC(=O)[C@H](CC(N)=O)NC(=O)[C@@H](NC(=O)[C@@H](NC(=O)[C@H](CC(N)=O)NC(=O)[C@H](Cc1ccccc1)NC(=O)[C@H](Cc1c[nH]c2ccccc12)NC(=O)[C@H](CC(N)=O)NC(=O)[C@H](Cc1c[nH]c2ccccc12)NC(=O)[C@H](CC(C)C)NC(=O)[C@H](CO)NC(=O)[C@H](C)NC(=O)[C@H](Cc1c[nH]c2ccccc12)NC(=O)[C@H](CCCCN)NC(=O)[C@H](CC(=O)O)NC(=O)[C@H](CC(C)C)NC(=O)[C@H](CCC(=O)O)NC(=O)[C@H](CC(C)C)NC(=O)[C@H](CC(C)C)NC(=O)[C@H](CCC(=O)O)NC(=O)[C@H](CCC(N)=O)NC(=O)[C@H](CCC(=O)O)NC(=O)[C@H](CC(N)=O)NC(=O)[C@H](CCCCN)NC(=O)[C@H](CCC(=O)O)NC(C)=O)[C@@H](C)CC)[C@@H](C)O)C(=O)N[C@@H](CCCCN)C(=O)NCCCCC(NC(=O)CCNC(=O)[C@H](CCCCN)NC(=O)[C@@H](NC(=O)[C@H](Cc1ccc(O)cc1)NC(=O)[C@H](Cc1c[nH]c2ccccc12)NC(=O)[C@H](CC(C)C)NC(=O)[C@H](Cc1c[nH]c2ccccc12)NC(=O)[C@H](CC(N)=O)NC(=O)[C@@H](NC(=O)[C@@H](NC(=O)[C@H](CC(N)=O)NC(=O)[C@H](Cc1ccccc1)NC(=O)[C@H](Cc1c[nH]c2ccccc12)NC(=O)[C@H](CC(N)=O)NC(=O)[C@H](Cc1c[nH]c2ccccc12)NC(=O)[C@H](CC(C)C)NC(=O)[C@H](CO)NC(=O)[C@H](C)NC(=O)[C@H](Cc1c[nH]c2ccccc12)NC(=O)[C@H](CCCCN)NC(=O)[C@H](CC(=O)O)NC(=O)[C@H](CC(C)C)NC(=O)[C@H](CCC(=O)O)NC(=O)[C@H](CC(C)C)NC(=O)[C@H](CC(C)C)NC(=O)[C@H](CCC(=O)O)NC(=O)[C@H](CCC(N)=O)NC(=O)[C@H](CCC(=O)O)NC(=O)[C@H](CC(N)=O)NC(=O)[C@H](CCCCN)NC(=O)[C@H](CCC(=O)O)NC(C)=O)[C@@H](C)CC)[C@@H](C)O)[C@@H](C)CC)C(N)=O` (stereo partly drawn) [EK30-DC], the IC80 under setting [1] is above 33.3 µM.
Take `CC[C@H](C)[C@H](NC(=O)[C@H](Cc1ccc(O)cc1)NC(=O)[C@H](Cc1c[nH]c2ccccc12)NC(=O)[C@H](CC(C)C)NC(=O)[C@H](Cc1c[nH]c2ccccc12)NC(=O)[C@H](CC(N)=O)NC(=O)[C@@H](NC(=O)[C@@H](NC(=O)[C@H](CC(N)=O)NC(=O)[C@H](Cc1ccccc1)NC(=O)[C@H](Cc1c[nH]c2ccccc12)NC(=O)[C@H](CC(N)=O)NC(=O)[C@H](Cc1c[nH]c2ccccc12)NC(=O)[C@H](CC(C)C)NC(=O)[C@H](CO)NC(=O)[C@H](C)NC(=O)[C@H](Cc1c[nH]c2ccccc12)NC(=O)[C@H](CCCCN)NC(=O)[C@H](CC(=O)O)NC(=O)[C@H](CC(C)C)NC(=O)[C@H](CCC(=O)O)NC(=O)[C@H](CC(C)C)NC(=O)[C@H](CC(C)C)NC(=O)[C@H](CCC(=O)O)NC(=O)[C@H](CCC(N)=O)NC(=O)[C@H](CCC(=O)O)NC(=O)[C@H](CC(N)=O)NC(=O)[C@H](CCCCN)NC(=O)[C@H](CCC(=O)O)NC(C)=O)[C@@H](C)CC)[C@@H](C)O)C(=O)N[C@@H](CCCCN)C(N)=O` [EK30]: under setting [1], the IC50 is 5.7 µM and the IC80 amounted to 16.8 µM.
Regarding `CC[C@H](C)[C@H](NC(=O)[C@H](Cc1ccc(O)cc1)NC(=O)[C@H](Cc1c[nH]c2ccccc12)NC(=O)[C@H](CC(C)C)NC(=O)[C@H](Cc1c[nH]c2ccccc12)NC(=O)[C@H](CC(N)=O)NC(=O)[C@@H](NC(=O)[C@@H](NC(=O)[C@H](CC(N)=O)NC(=O)[C@H](Cc1ccccc1)NC(=O)[C@H](Cc1c[nH]c2ccccc12)NC(=O)[C@H](CC(N)=O)NC(=O)[C@H](Cc1c[nH]c2ccccc12)NC(=O)[C@H](CC(C)C)NC(=O)[C@H](CO)NC(=O)[C@H](C)NC(=O)[C@H](Cc1c[nH]c2ccccc12)NC(=O)[C@H](CCCCN)NC(=O)[C@H](CC(=O)O)NC(=O)[C@H](CC(C)C)NC(=O)[C@H](CCC(=O)O)NC(=O)[C@H](CC(C)C)NC(=O)[C@H](CC(C)C)NC(=O)[C@H](CCC(=O)O)NC(=O)[C@H](CCC(N)=O)NC(C)=O)[C@@H](C)CC)[C@@H](C)O)C(=O)N[C@@H](CCCCN)C(=O)NCCCCC(NC(=O)CCNC(=O)[C@H](CCCCN)NC(=O)[C@@H](NC(=O)[C@H](Cc1ccc(O)cc1)NC(=O)[C@H](Cc1c[nH]c2ccccc12)NC(=O)[C@H](CC(C)C)NC(=O)[C@H](Cc1c[nH]c2ccccc12)NC(=O)[C@H](CC(N)=O)NC(=O)[C@@H](NC(=O)[C@@H](NC(=O)[C@H](CC(N)=O)NC(=O)[C@H](Cc1ccccc1)NC(=O)[C@H](Cc1c[nH]c2ccccc12)NC(=O)[C@H](CC(N)=O)NC(=O)[C@H](Cc1c[nH]c2ccccc12)NC(=O)[C@H](CC(C)C)NC(=O)[C@H](CO)NC(=O)[C@H](C)NC(=O)[C@H](Cc1c[nH]c2ccccc12)NC(=O)[C@H](CCCCN)NC(=O)[C@H](CC(=O)O)NC(=O)[C@H](CC(C)C)NC(=O)[C@H](CCC(=O)O)NC(=O)[C@H](CC(C)C)NC(=O)[C@H](CC(C)C)NC(=O)[C@H](CCC(=O)O)NC(=O)[C@H](CCC(N)=O)NC(C)=O)[C@@H](C)CC)[C@@H](C)O)[C@@H](C)CC)C(N)=O` (stereo partly drawn) [QK26-DC], the “IC50 elevated by C-terminal dimerization with respect to the monomer” value (Fig 4D values) turned out to be 1.3 fold. This molecule also had an IC80 under setting [1] of 8.7 µM.
As for `CC[C@H](C)[C@H](NC(=O)[C@H](Cc1ccc(O)cc1)NC(=O)[C@H](Cc1c[nH]c2ccccc12)NC(=O)[C@H](CC(C)C)NC(=O)[C@H](Cc1c[nH]c2ccccc12)NC(=O)[C@H](CC(N)=O)NC(=O)[C@@H](NC(=O)[C@@H](NC(=O)[C@H](CC(N)=O)NC(=O)[C@H](Cc1ccccc1)NC(=O)[C@H](Cc1c[nH]c2ccccc12)NC(=O)[C@H](CC(N)=O)NC(=O)[C@H](Cc1c[nH]c2ccccc12)NC(=O)[C@H](CC(C)C)NC(=O)[C@H](CO)NC(=O)[C@H](C)NC(=O)[C@H](Cc1c[nH]c2ccccc12)NC(=O)[C@H](CCCCN)NC(=O)[C@H](CC(=O)O)NC(=O)[C@H](CC(C)C)NC(=O)[C@H](CCC(=O)O)NC(=O)[C@H](CC(C)C)NC(=O)[C@H](CC(C)C)NC(=O)[C@H](CCC(=O)O)NC(=O)[C@H](CCC(N)=O)NC(C)=O)[C@@H](C)CC)[C@@H](C)O)C(=O)N[C@@H](CCCCN)C(N)=O` [QK26], the IC50 under setting [2] was determined as 3.9 µM and the IC50 under setting [1] worked out at 2.4 µM. In addition, the IC80 is 8.8 µM under setting [2] and 6.3 µM under setting [1].
Under setting [1], “Ac-EESQNQQEKNEQELLELDKWASLWNWFNITNWLWYIK-NH2 [EK37]” came in with a half-inhibitory concentration (IC50) of 2.8 µM and an IC80 of 11.6 µM.
Under setting [2], Ac-LDKWASLWNWFNITNWLWYIK-NH2 [LK21] returned an IC50 of 8 µM and an IC80 of 12.3 µM.
Take Ac-QELLELDKWASLWNWFNIT-NH2 [QT19]: under setting [2], the IC50 was above 33.3 µM.
Molecule “I: Ac-EESQNQQEKNEQELLELDKWASLWNWFNITNWLWYIK[βAla][ξK]-NH2 / II: Ac-EESQNQQEKNEQELLELDKWASLWNWFNITNWLWYIK (amide I:39-II:C; N-terminus and C-terminus assumed) [EK37-DC]” had an IC80 under setting [1] above 33.3 µM.

What is called IC80 is the concentration at which the effect reaches the 80% level. Lower therefore signals an effect from little substance. By IC50 is commonly meant the point on the concentration scale where inhibition reaches its midpoint. Low readings indicate higher potency, high ones lower potency.
